# Among all 110,000 compounds or so, about 230 (0.21%) showed an effect of 50% or more. The list shows a part of the results.
# Target: DPAP1 (Plasmodium falciparum, UniProt Q8IIJ9)
# Assay: primary screen, percent inhibition; read by cleavage of a fluorogenic dipeptide substrate; higher = more effect of the substance
# Design: species or system P. falciparum D10 trophozoite lysates; single well
# 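Also: 30 min substrate incubation versus DMSO and 10 µM JCP410 controls.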
# Chain of DPAP1 (Q8IIJ9 whole entry, looked up): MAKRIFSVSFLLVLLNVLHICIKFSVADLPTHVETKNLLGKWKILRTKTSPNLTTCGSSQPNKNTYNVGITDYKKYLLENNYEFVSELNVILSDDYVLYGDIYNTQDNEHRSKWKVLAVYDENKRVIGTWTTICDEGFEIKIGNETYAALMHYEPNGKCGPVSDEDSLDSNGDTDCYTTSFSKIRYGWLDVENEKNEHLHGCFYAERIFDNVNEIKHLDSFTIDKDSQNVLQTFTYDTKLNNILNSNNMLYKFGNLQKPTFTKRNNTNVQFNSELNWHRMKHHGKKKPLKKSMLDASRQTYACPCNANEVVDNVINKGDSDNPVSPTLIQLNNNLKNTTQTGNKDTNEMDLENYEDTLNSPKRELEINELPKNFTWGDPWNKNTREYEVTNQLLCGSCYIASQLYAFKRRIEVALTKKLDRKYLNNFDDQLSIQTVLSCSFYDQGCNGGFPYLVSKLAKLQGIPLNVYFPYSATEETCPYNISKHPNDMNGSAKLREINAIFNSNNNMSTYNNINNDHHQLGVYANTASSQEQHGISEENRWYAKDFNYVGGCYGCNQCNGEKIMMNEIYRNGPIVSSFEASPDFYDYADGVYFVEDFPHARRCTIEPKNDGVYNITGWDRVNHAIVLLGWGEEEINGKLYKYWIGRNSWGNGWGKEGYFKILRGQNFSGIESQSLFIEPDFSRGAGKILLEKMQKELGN
row,SMILES,% Inhibition @ 10 uM
1,COc1ccc(C2NC(C(=O)O)Cc3c2[nH]c2ccccc32)c(OC)c1 (stereo not shown),-0.0372%
2,COc1cc(C2Nc3ccccc3C(=O)N2Cc2ccco2)ccc1O (stereo not shown),-5.71%
3,C=C(C)CC(C(=O)NCC#N)c1cncc(-c2ccccc2)c1 (stereo not shown),-4.72%
4,COc1ccccc1C(=O)Nc1ccc2oc(-c3ccc(N(C)C)cc3)nc2c1,0.35%
5,Cc1ccc2oc(-c3ccc(Br)c(N)c3)nc2c1,-3.45%
6,COc1ccc(C2c3cc(OC)c(OC)cc3CCN2C)cc1OC (stereo not shown),-6.29%
7,CCCN1CCN(CCCNC(=O)c2ccc3c(Cl)c4c(nc3c2)CCCC4)CC1,7.03%
8,O=C(Cn1c(=O)c2cccn2c2cccnc21)N1CCN(C2CCCCC2)CC1,6.66%
9,CCSc1nnc(NC(=O)c2c(-c3ccccc3)noc2C)s1,-4.77%
10,O=C1CSC(c2ccccc2)N1CC(O)c1ccccc1 (stereo not shown),-9.91%
11,Cn1cnc2c(=O)oc3ccc(S(=O)(=O)NCC4CCCO4)cc3c21 (stereo not shown),-1.83%
12,CS(=O)(=O)N(CC(=O)NCc1ccc(Cl)cc1)c1cccc(Cl)c1Cl,-17.1%
13,CCN1CCN(CCc2ccccc2)CC1,1.08%
14,COc1ccccc1NCN1C(=O)CCC1=O,1.7%
15,COc1ccc(CCNC(=O)C2CCCN(S(=O)(=O)c3cccc4nonc34)C2)cc1OC (stereo not shown),-2.56%
16,O=C(Nc1cccnc1Cl)c1cc2c(s1)-c1ccccc1S(=O)(=O)C2,-0.72%
17,Cc1ccc2nc(NC3CCCCC3)c3nnnn3c2c1,-4.59%
18,COc1ccc(CCNC(=O)CSc2ccc(-c3cccs3)nn2)cc1OC,0.581%
19,O=C(NCc1ccccc1)c1ccc(N2C(=O)CSC23C(=O)Nc2ccccc23)cc1 (stereo not shown),-1.19%
20,CCC(Cc1ccccc1)NC(=O)C1CCN(C(=O)c2cc3sccc3n2C)CC1 (stereo not shown),-1.58%
21,CCOc1ccc(C(=O)Nc2cccc(F)c2)cc1,-9.68%
22,CCn1c(C(=O)NCCCN2CCc3ccccc3C2)cc2sccc21,-6.68%
23,CCn1c(=O)[nH]c2cc(C(=O)Nc3ccc(OC)cc3)ccc2c1=O,-5.32%
24,O=C(c1ccccc1)N1CCc2[nH]ncc2C1,-3.1%
25,CN1CCN(C(=O)C2c3ccccc3C=Cc3ccccc32)CC1,-0.312%

row,SMILES,% Inhibition @ 10 uM
1,COc1ccc(N2CCN(Cc3cccc(C(F)(F)F)c3)CC2)cc1,-2.56%
2,O=C(NCc1ccccc1Cl)NC12CC3CC(CC(C3)C1)C2,0.35%
3,CC(C)(C)OC(=O)NC(Cc1c[nH]c2ccccc12)C(=O)NCC#N (stereo not shown),1.7%
4,Cc1onc(-c2ccccc2)c1C(=O)NCC1CCN(C(=O)c2c(-c3ccccc3)noc2C)CC1,3.67%
5,CCOC(=O)c1sc(N2C(=O)c3oc4ccc(C)cc4c(=O)c3C2c2cccc(OC)c2)nc1C (stereo not shown),5.3%
6,CCCN1CCN(C(=O)c2oc3ccccc3c2NC(=O)COc2ccc(OC)cc2)CC1,-3.09%
7,Cn1nc(C(=O)Nc2ccc(Cl)cn2)c2c1-c1ccccc1OC2,0.00665%
8,O=C(NCc1cccs1)c1ccc(-n2cccc2)cc1,-3.93%
9,CC(C)C[C@H](Nc1ccccc1[N+](=O)[O-])C(=O)NCC#N,-8.49%
10,O=c1c(Cc2ccccc2)c(O)cc(-c2cccnc2)n1-c1ccc(Cl)cc1,0.726%
11,CCc1ccc(-c2oc(C)c(C)[n+]2[O-])cc1,2.94%
12,CC1CCN(c2c(NCc3ccc(C(=O)NCc4cccnc4)cc3)c(=O)c2=O)CC1,2.76%
13,Cc1ccc2c(c1)C(OC1CCN(C)CC1)c1ccccc1CS2 (stereo not shown),-16.5%
14,NC(=S)N/N=C/c1cccc(C(=O)O)c1O,2.8%
15,COc1ccccc1-c1c(C)nn2c(N(C)Cc3ccccc3)cc(C)nc12,-1.46%
16,COc1ccc(OC)c(/C=C/C(=O)NCCN2CCC(N(C)C3CCCCC3C)CC2)c1 (stereo not shown),-1.05%
17,COCCn1c(/C=C/c2ccccc2)nc2ccccc21,-2.5%
18,CN(C)C(=O)N1CCC(C(=O)NCCC2=CCCCC2)CC1,-3.12%
19,Cc1cccc(CN2CCN(CC(=O)N3CCc4ccccc4C3)C2=O)c1,0.128%
20,CC(C)(C)NC(=O)CCn1nc(-c2ccc(Cl)cc2)c2ccccc2c1=O,2.25%
21,CCC(C)N1C(=O)S/C(=C/c2ccc(OC)c(OC)c2)C1=O (stereo not shown),1.08%
22,Cc1nnc2c3c4c(sc3nc(C)n12)CCCC4,5.75%
23,COc1cc2oc(=O)c(CC(=O)N3CCOCC3)c(C)c2cc1OC,4.13%
24,CCOc1ccc(C(=O)N2CCCN(C(=O)c3ccc(OCC)cc3)CC2)cc1,-2.8%
25,COC(=O)c1c(N)sc(Cc2ccccc2)c1C,11%

row,SMILES,% Inhibition @ 10 uM
1,Brc1ccc(-c2noc(COc3ccccc3)n2)cc1,4.98%
2,Cc1ccc(N(CC(=O)NCC2CCCO2)S(=O)(=O)c2ccccc2)cc1C (stereo not shown),-2.83%
3,Cc1ccc(-c2nc3ncccn3c2NC2CCCC2)o1,1.75%
4,COC(=O)c1c(C)[nH]c(-c2ccccc2)c1/C=C/C(O)=C1\C(=O)Oc2ccccc2C1=O,-3.44%
5,CCOc1cc(C2C=C(c3cccc(C)c3)Nc3nnnn32)ccc1OC(F)F (stereo not shown),1.73%
6,CC(C)C[C@H](NC1=NC(=O)c2ccccc21)C(=O)NCC#N,-10.7%
7,CN(C)CCCNC(=O)c1nc(-c2ccc(C(F)(F)F)cc2)no1,0.895%
8,Cc1ccc(-c2nnc3n2NC(=O)CS3)cc1,7.5%
9,COCCNC(=O)c1cn(CCOC)c(=O)c2c1c1ccccc1n2C,-7.85%
10,Cc1cc(C)cc(OC(C)C(=O)N(Cc2ccc(Cl)cc2)C2CCS(=O)(=O)C2)c1 (stereo not shown),-8.79%
11,Cc1ccnc(N2C(=O)c3ccc(C45CC6CC(CC(C6)C4)C5)cc3C2=O)c1,1.72%
12,C/C(=N\OCC(=O)Nc1nc2ccccc2s1)c1cccs1,-8.55%
13,CCCCNC(=O)c1cccc(Br)c1,-3.55%
14,COc1cccc(C2C3=C(O)CCCC3=NC(C)=C2C(=O)Nc2ccccc2C)c1OC (stereo not shown),2.38%
15,Cc1ccc(-c2[nH]nc3c2C2(C(=O)Nc4ccc(F)cc42)C(C#N)=C(N)O3)cc1 (stereo not shown),-2.83%
16,COc1ccc2c(Sc3ccc(Cl)cc3)c(C(=O)NCCN3CCOCC3)[nH]c2c1,-3.1%
17,CCCOC(=O)C1=C(C)N(C)C(=O)NC1c1cc(OC)ccc1OC (stereo not shown),-5.92%
18,Cc1cccc(CC(=O)NCCSc2c[nH]c3ccccc23)c1,-2.49%
19,C=CCOc1ccc(C2C3=C(CC(C)(C)CC3=O)OC3=C2C(=O)CC(C)(C)C3)cc1,-1.78%
20,CCOc1ccc(-c2cc(NC(=O)c3cccc(F)c3)c(C(=O)OC)s2)cc1,-7.97%
21,CCOc1cc(/C=C2\C(=N)N3N=C(S(C)(=O)=O)SC3=NC2=O)ccc1OCc1ccccc1,-3.39%
22,COc1cccc(C(=O)c2sc3nc(C)c(C)c(C)c3c2N)c1,4.28%
23,COCCNS(=O)(=O)c1c[nH]c(C(=O)OC)c1,4.14%
24,COc1ccc(Cn2c(SCC(=O)C(C)(C)C)nc3sc(C(=O)N(C)C)c(C)c3c2=O)cc1,1.24%
25,C=CCn1c(C)cs/c1=N\c1ccc(C(=O)O)cc1,4%

row,SMILES,% Inhibition @ 10 uM
1,N#Cc1cccc(NC(=O)c2sc3nc4c(c(C(F)(F)F)c3c2N)CCC4)c1,25.2%
2,COc1ccc(CC/N=C/C2=C(O)c3sccc3N(Cc3ccc(C)cc3)S2(=O)=O)cc1OC,-0.909%
3,O=C(O)c1csc2c1CCCC2=O,4.66%
4,COc1ccc(-n2c(C)cc(/C=C3/C(=N)N4C(=NC3=O)SN=C4S(C)(=O)=O)c2C)cc1Cl,6.59%
5,Cc1nc(-c2ccccc2)sc1C(N)=O,24.4%
6,O=C(C1COc2cc(S(=O)(=O)NCCCc3ccccc3)ccc2O1)N1CCCCC1 (stereo not shown),-2.29%
7,CCOC(=O)C1=C(C)N=c2s/c(=C\c3ccc(O)cc3)c(=O)n2C1c1ccccc1Cl (stereo not shown),7.55%
8,CCCCOc1ccc(CC2CCC(=O)NC2=O)cc1 (stereo not shown),2.94%
9,CCC(C)NC(=O)CS(=O)Cc1nc(-c2cccc(C)c2)oc1C (stereo not shown),-1.05%
10,Cc1sc(NC(=O)c2ccccc2)c(C(c2ccncc2)N2CCN(C)CC2)c1C (stereo not shown),2.64%
11,CC(C)(C)C1(C)OC(=O)C(=Cc2cccc(O)c2)C(=O)O1 (stereo not shown),0.275%
12,CCOC(=O)c1c(N)sc(C(=O)OC(C)(C)C)c1C,14.2%
13,CN1CCC(NCCc2ccc(F)cc2)CC1,-5.11%
14,Cc1cc(C)nc(NS(=O)(=O)c2ccc(NC(=O)Cc3ccc(Cl)cc3)cc2)n1,3.53%
15,OCCn1c(-c2ccccc2)cs/c1=N\c1ccccc1,5.73%
16,O=C(C1=C(O)C(=O)N(CCCN2CCOCC2)C1c1cccs1)c1cc2ccccc2o1 (stereo not shown),13.5%
17,CCOc1cc2c(cc1OCC)C1C(C(=O)Nc3cccnc3)c3ccccc3C(=O)N1CC2 (stereo not shown),4.05%
18,CCN(CC)c1ccc(C(O)c2nc3ccccc3n2CC)cc1 (stereo not shown),1.72%
19,CC(Nc1nc(N2CCN(C(=O)C3CCCC3)CC2)nc2ccccc12)c1ccccc1 (stereo not shown),-2.05%
20,Cc1cccc2cc3ccccc3nc12,2.32%
21,O=S(=O)(c1cccc(C(F)(F)F)c1)N1CCNCC1,-4.19%
22,Cc1nc2ccc(/C=C/C(=O)O)cc2s1,1.54%
23,COc1ccc(Nc2nc(-c3ccccc3)c(Oc3ccc(Cl)cc3)s2)cc1,-2.02%
24,CC(C)CC(NC(=O)c1cccc(Br)c1)C(=O)NCC#N (stereo not shown),3.19%
25,CC12COC3(C(=O)N4CCCCCC4)CC1CCC32C (stereo not shown),1.02%
